Results taken from PMC4336329 (PLoS ONE, 2015).
Hit rate of the full screen: of about 310,000 compounds, about 2,200 (0.71%) showed an effect of 50% or more. Effects have a minus sign here. The list shows a part of the results.

The compounds below were run against human ether-à-go-go-related gene (hERG) potassium channel (human, UniProt Q12809) (assay: primary screen, population patch clamp on CHO cells stably expressing hERG).
human ether-à-go-go-related gene (hERG) potassium channel, sequence (Q12809 whole entry, looked up): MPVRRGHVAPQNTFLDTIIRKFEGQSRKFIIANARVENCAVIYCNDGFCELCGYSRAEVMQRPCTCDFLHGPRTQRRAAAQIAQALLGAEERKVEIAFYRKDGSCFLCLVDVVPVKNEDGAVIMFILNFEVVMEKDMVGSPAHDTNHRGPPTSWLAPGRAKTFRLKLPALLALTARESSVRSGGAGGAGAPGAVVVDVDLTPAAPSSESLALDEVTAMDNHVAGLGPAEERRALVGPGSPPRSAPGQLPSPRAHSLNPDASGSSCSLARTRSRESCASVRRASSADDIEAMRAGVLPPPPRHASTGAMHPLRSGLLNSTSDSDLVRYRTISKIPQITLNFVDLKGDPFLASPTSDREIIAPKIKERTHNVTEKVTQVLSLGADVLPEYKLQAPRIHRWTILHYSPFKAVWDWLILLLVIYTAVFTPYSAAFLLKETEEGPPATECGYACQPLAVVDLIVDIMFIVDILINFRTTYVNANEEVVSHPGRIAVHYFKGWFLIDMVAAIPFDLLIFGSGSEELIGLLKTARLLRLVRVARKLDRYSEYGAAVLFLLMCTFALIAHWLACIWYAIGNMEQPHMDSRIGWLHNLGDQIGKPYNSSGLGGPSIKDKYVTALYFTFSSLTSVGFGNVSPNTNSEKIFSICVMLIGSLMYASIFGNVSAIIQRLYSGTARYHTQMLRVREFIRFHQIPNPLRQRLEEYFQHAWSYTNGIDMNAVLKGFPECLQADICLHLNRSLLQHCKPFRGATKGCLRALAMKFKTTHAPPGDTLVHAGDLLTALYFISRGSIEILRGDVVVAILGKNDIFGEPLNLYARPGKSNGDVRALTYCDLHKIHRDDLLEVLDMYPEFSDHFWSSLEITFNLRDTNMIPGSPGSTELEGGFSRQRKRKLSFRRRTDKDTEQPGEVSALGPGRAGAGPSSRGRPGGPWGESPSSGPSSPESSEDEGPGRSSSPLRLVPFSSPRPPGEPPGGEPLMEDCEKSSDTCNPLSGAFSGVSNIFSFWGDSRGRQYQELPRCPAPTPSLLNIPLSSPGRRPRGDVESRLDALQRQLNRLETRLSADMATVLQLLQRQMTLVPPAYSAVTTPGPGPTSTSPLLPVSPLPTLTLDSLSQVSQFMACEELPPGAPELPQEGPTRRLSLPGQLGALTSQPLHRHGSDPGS

Row | Compound | hERG current change (%, negative = inhibition) at 1uM [%]
1 | COc1cc(/C=N/N2CCOCC2)ccc1OCc1ccc(Cl)cc1 | 3.52
2 | Cn1ncc2c(NNC(=O)c3ccccc3Cl)ncnc21 | 9.66
3 | C/C(CC(=O)Nc1c(Cl)cccc1C(F)(F)F)=N\NC(=O)c1cnccn1 | 12.3
4 | O=C(Nc1ccc(F)cc1)c1cnc(-c2ccccc2)nc1-c1ccccc1 | 4.6
5 | CC(=O)Nc1cccc(C(=O)OCc2ccccc2)c1 | 6.75
6 | COc1ccc(NC(=O)c2nnn(CC(=O)Nc3ccc4c(c3)OCO4)c2N)cc1OC | 17.5
7 | COc1ccc(Cn2nnnc2C(CC(C)C)N2CCC(C(N)=O)CC2)cc1 (stereo not drawn) | 4.16
8 | O=[N+]([O-])c1ncc(Br)cc1Nc1ccccc1 | 16.5
9 | CN1CCN(C(=S)c2ccc(-c3cc(Cl)ccc3Cl)o2)CC1 | 3.09
10 | CCC(=O)Nc1ccc(C2C(=O)c3ccccc3C2=O)cc1 | 5.37
11 | Cc1cccc(NC(=O)CSc2nc3nc4c(cc3c(=O)n2-c2ccccc2)CCCC4)c1 | 8.42
12 | CC(=O)c1ccc(NC(=O)N2C[C@H]3C[C@@H](C2)c2cccc(=O)n2C3)cc1 | 2.86
13 | CCOc1cc(/C=N/O)ccc1OCC(=O)Nc1cccc(C)c1 | 14.7
14 | CCNC(=S)Nc1ccc(S(=O)(=O)Nc2cc(C)nc(C)n2)cc1 | 13.9
15 | Cc1cc(C(=O)COC(=O)c2csc3c2CCCC3)c(C)n1C | 14.2
16 | COC(=O)c1ccc(CN2CCC(CO)(Cc3ccc(OC)cc3)CC2)cc1 | -35.1
17 | CCOC(=O)C1CCN(C(=S)Nc2cc(OC)c(OC)cc2C(=O)OC)CC1 | -9.76
18 | O=C(CSc1ccccc1)N1CCN(S(=O)(=O)c2ccccc2F)CC1 | 5.46
19 | O=C(c1cccc(S(=O)(=O)NCc2ccccc2)c1)N1CCN(c2ccc(F)cc2)CC1 | -41.7
20 | CCCC(=O)N(CCN1CCOCC1)c1nc2c(OC)ccc(OC)c2s1.Cl | -2.71
21 | CC(=O)Nc1ccc(S(=O)(=O)Nc2nc3ccc([N+](=O)[O-])cc3s2)cc1 | 15.7
22 | N#Cc1ccc(NC(=O)COC(=O)CNC(=O)C2CCCCC2)cc1 | 2.65
23 | COCCNC(=O)C(c1ccc(C)cc1)N(C(=O)C(=O)NC1CCCC1)c1ccc2c(c1)OCCO2 (stereo not drawn) | 10.9
24 | CN(C)S(=O)(=O)c1cccc(COC(=O)c2cnccn2)c1 | 11.7
